# Results: the supplement of paper PMC8728848
# The list shows a part of the results.
# B1: GS7807P-bth-537-23-537 (Bacteroides thetaiotaomicron) (protein)
# chain: NYENINSNPYEAPDLSADGYALGSAMNNLAGCVVSPDVNTAQFTDCLLGGPLGGYFADSNAGFTETISNFNPKDDWSRVFLKSDKIIPTLYSNLTQVKLVSQNTNDPVPYAIAQVIKVAAMHRVTDAFGPIPYSQIGANGEIATPYDSQEVTYNTFFDELNAAIATLNENSNEQLVPTADYIYKGDVKKWIRFANSLKLRLAIRIAYANPVKAQQMAEEAVNPANGGVIESNADNATWNYFETSQNPIYVATRYNQVQTSDHGGVPCLTGGDTHAAADIICYMNGYKDNRREKFFTKSEWAGQDYVGMRRGIVIPELKTTGHKYSGVNIAPTSPLYWMNAAEVAFLRAEGQAVFNFSMGGTAESFYNQGIRLSFEQWGADGVEDYLKDDVNKPTAYTDPAGTNTYQNALSNITIKWNDSADKEEKQERIIVQKWIANWQLGNEAWADFRRTGYPKLIPVKENKSGGVVDSEKGARRMPYPLDEFVSNKANVEYAIANYLHGADNMATDVWWASKK
# Tests used:
# Experiment in all cases: glycan array binding signal (z-score within array); higher = stronger binding
# Details in all cases: glycan notation: IUPAC condensed, linker removed
# [1] = molecular target: Fuc(a1-2)Gal(b1-4)GlcNAc(b1-3)Gal(b1-4)GlcNAc(b1-3)Gal(b1-4)GlcNAc
# Summary of the method: (§1)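 The binding signal is a Z-score computed within each array. Data were drawn from 3228 arrays in the Consortium for Functional Glycomics database, restricted to those with a known protein sequence. Scores were averaged over arrays of the same protein sequence at different concentrations or buffers, and over linkers, and negative values can be taken as non-binding.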
# [2] = molecular target: Fuc(a1-2)Gal(b1-4)GlcNAc(b1-3)GalNAc
# Summary of the method: as §1
# [3] = molecular target: Fuc(a1-2)Gal(b1-4)GlcNAc(b1-3)[Fuc(a1-2)Gal(b1-4)GlcNAc(b1-6)]GalNAc
# Summary of the method: as §1
# [4] = molecular target: Fuc(a1-2)Gal(b1-4)GlcNAc(b1-3)[Fuc(a1-3)[Gal(b1-4)]GlcNAc(b1-6)]Gal(b1-4)Glc
# Summary of the method: as §1
# [5] = molecular target: Fuc(a1-2)Gal(b1-4)GlcNAc(b1-6)GalNAc
# Summary of the method: as §1
# [6] = molecular target: Fuc(a1-2)Gal(b1-4)GlcNAc6S
# Summary of the method: as §1
# [7] = molecular target: Fuc(a1-2)Gal(b1-4)[Fuc(a1-3)]GlcNAc
# Summary of the method: as §1
# [8] = molecular target: Fuc(a1-2)Gal(b1-4)[Fuc(a1-3)]GlcNAc(b1-2)Man(a1-3)[Fuc(a1-2)Gal(b1-4)[Fuc(a1-3)]GlcNAc(b1-2)Man(a1-6)]Man(b1-4)GlcNAc(b1-4)[Fuc(a1-6)]GlcNAc
# Summary of the method: as §1
# [9] = molecular target: Fuc(a1-2)Gal(b1-4)[Fuc(a1-3)]GlcNAc(b1-2)[Fuc(a1-2)Gal(b1-4)[Fuc(a1-3)]GlcNAc(b1-4)]Man(a1-3)[Fuc(a1-2)Gal(b1-4)[Fuc(a1-3)]GlcNAc(b1-2)Man(a1-6)]Man(b1-4)GlcNAc(b1-4)GlcNAc
# Summary of the method: as §1
# [10] = molecular target: Fuc(a1-2)Gal(b1-4)[Fuc(a1-3)]GlcNAc(b1-3)Gal(b1-4)[Fuc(a1-3)]GlcNAc
# Summary of the method: as §1
# [11] = molecular target: Fuc(a1-2)Gal(b1-4)[Fuc(a1-3)]GlcNAc(b1-3)Gal(b1-4)[Fuc(a1-3)]GlcNAc(b1-3)Gal(b1-4)[Fuc(a1-3)]GlcNAc
# Summary of the method: as §1
# [12] = molecular target: Fuc(a1-2)Gal(b1-4)[Fuc(a1-3)]GlcNAc(b1-3)GalNAc
# Summary of the method: as §1
# [13] = molecular target: Fuc(a1-2)Gal(b1-4)[Fuc(a1-3)]GlcNAc(b1-3)[Neu5Ac(a2-6)Gal(b1-4)GlcNAc(b1-6)]Gal(b1-4)Glc
# Summary of the method: as §1
# [14] = molecular target: Fuc(a1-2)Gal3S(b1-4)GlcNAc
# Summary of the method: as §1
# [15] = molecular target: Fuc(a1-2)Gal6S(b1-3)GlcNAc
# Summary of the method: as §1
# [16] = molecular target: Fuc(a1-2)Gal6S(b1-3)GlcNAc6S
# Summary of the method: as §1
# Fuc(a1-2)Gal6S(b1-4)Glc = molecular target: Fuc(a1-2)Gal6S(b1-4)Glc
# Summary of the method: as §1
# [17] = molecular target: Fuc(a1-2)Gal6S(b1-4)Glc6S
# Summary of the method: as §1
# Fuc(a1-2)[Gal(a1-3)]Gal = molecular target: Fuc(a1-2)[Gal(a1-3)]Gal
# Summary of the method: as §1
# [18] = molecular target: Fuc(a1-2)[Gal(a1-3)]Gal(b1-3)GalNAc
# Summary of the method: as §1
# [19] = molecular target: Fuc(a1-2)[Gal(a1-3)]Gal(b1-3)GalNAc(b1-3)Gal(a1-4)Gal(b1-4)Glc
# Summary of the method: as §1
# [20] = molecular target: Fuc(a1-2)[Gal(a1-3)]Gal(b1-3)GlcNAc
# Summary of the method: as §1
# [21] = molecular target: Fuc(a1-2)[Gal(a1-3)]Gal(b1-3)GlcNAc(b1-2)Man(a1-3)[Fuc(a1-2)[Gal(a1-3)]Gal(b1-3)GlcNAc(b1-2)Man(a1-6)]Man(b1-4)GlcNAc(b1-4)GlcNAc
# Summary of the method: as §1
# [22] = molecular target: Fuc(a1-2)[Gal(a1-3)]Gal(b1-3)GlcNAc(b1-2)Man(a1-3)[Fuc(a1-2)[Gal(a1-3)]Gal(b1-3)GlcNAc(b1-2)Man(a1-6)]Man(b1-4)GlcNAc(b1-4)[Fuc(a1-6)]GlcNAc
# Summary of the method: as §1
# [23] = molecular target: Fuc(a1-2)[Gal(a1-3)]Gal(b1-3)GlcNAc(b1-3)GalNAc
# Summary of the method: as §1
# [24] = molecular target: Fuc(a1-2)[Gal(a1-3)]Gal(b1-3)GlcNAc(b1-6)GalNAc
# Summary of the method: as §1
# [25] = molecular target: Fuc(a1-2)[Gal(a1-3)]Gal(b1-4)Glc
# Summary of the method: as §1
# [26] = molecular target: Fuc(a1-2)[Gal(a1-3)]Gal(b1-4)GlcNAc
# Summary of the method: as §1
# [27] = molecular target: Fuc(a1-2)[Gal(a1-3)]Gal(b1-4)GlcNAc(b1-2)Man
# Summary of the method: as §1
# [28] = molecular target: Fuc(a1-2)[Gal(a1-3)]Gal(b1-4)GlcNAc(b1-2)Man(a1-3)[Fuc(a1-2)[Gal(a1-3)]Gal(b1-4)GlcNAc(b1-2)Man(a1-6)]Man(b1-4)GlcNAc(b1-4)GlcNAc
# Summary of the method: as §1
binder,measurement,setting,value
B1,glycan array binding signal (z-score),[1],-0.346
same,glycan array binding signal (z-score),[2],-0.284
same,glycan array binding signal (z-score),[3],-0.005
same,glycan array binding signal (z-score),[4],-0.146
same,glycan array binding signal (z-score),[5],-0.35
same,glycan array binding signal (z-score),[6],-0.342
same,glycan array binding signal (z-score),[7],-0.36
same,glycan array binding signal (z-score),[8],-0.337
same,glycan array binding signal (z-score),[9],-0.094
same,glycan array binding signal (z-score),[10],-0.386
same,glycan array binding signal (z-score),[11],0.061
same,glycan array binding signal (z-score),[12],-0.115
same,glycan array binding signal (z-score),[13],-0.322
same,glycan array binding signal (z-score),[14],-0.396
same,glycan array binding signal (z-score),[15],-0.359
same,glycan array binding signal (z-score),[16],-0.329
same,glycan array binding signal (z-score),Fuc(a1-2)Gal6S(b1-4)Glc,0.294
same,glycan array binding signal (z-score),[17],-0.176
same,glycan array binding signal (z-score),Fuc(a1-2)[Gal(a1-3)]Gal,-0.241
same,glycan array binding signal (z-score),[18],-0.331
same,glycan array binding signal (z-score),[19],-0.394
same,glycan array binding signal (z-score),[20],-0.36
same,glycan array binding signal (z-score),[21],-0.375
same,glycan array binding signal (z-score),[22],-0.286
same,glycan array binding signal (z-score),[23],-0.325
same,glycan array binding signal (z-score),[24],2.94
same,glycan array binding signal (z-score),[25],-0.389
same,glycan array binding signal (z-score),[26],-0.359
same,glycan array binding signal (z-score),[27],-0.195
same,glycan array binding signal (z-score),[28],0.136
